# Laboratory results: the supplement of paper PMC8728848
# The list shows a part of the results.
# B1: PitA (Streptococcus oralis), G3F8D8 (protein)
# chain: MNIRFDFKKVQIIARRLVTLLAILFLCAPISLLNADSTTEPQTTLHKTITPISGQDDKYELSLDITSKLGTETQTDPLDVVLVADLSGSMQNQDVQSFDGRTISRIDALKNTLRGTNGRKGLIDTILSNSNNRLSMVGFGGKIDNKKVDQYWDGNKWRLFRPYWPYERMTKYYDGVSPWDDANTILGWSNNARAAKTAVYNMSIAGGNSIGTESGIGTGTNIGAGLTLANQLMGSARSNAKKVVILLSDGFANMVYDANGYTIYNYNNEDPNIETAPQWFWDRLNNNLNSLSYSLAPTLDGFYSIKFRYSNNVDSITSLQYYMRQHNASIPNEIFSANDEDQLRDSFKDITDKILPLGIHHVSIKDVLSKYVQLLPNGSSEFRVVKEKDGSSEILIENQVTFDTKTTSEGLVEVTAKFSPNYSLEDGARYVLKFTVTSSQEALDAIAGDKKLEAGDAEGSDVNKLYSNKGASVTYSYGIGNSQTKTKEYSDNPTFKPSDPLTVPVEVEWQGVTGARTVITADQPSNVELKLVQKNKNGGSDNQDYRKTNVNVSKNVSNETRNFEKVAKGYQYDLIAPDVPAFTKEIKNVGTESKPSFKVIYKQLPSLTIKKVLEAENNLNKEFRIKVKLTSPDSKPLNGTFGEITVVNGEAEIRVEKRKRWEGILSYLPRGTHYKVEEEAASTNGYHVTYENQEGDLNKDETSIVTNHKLPSLSVTKKVTGVFANLLKSFKITINIRDAQNSPLNGTYTATVNNKRTPLQFTNGRASIDLNKDQTIKIYGLPLDSHYTVEEESNSSRGYQVSYENQEGKLDGDKSATVTNNKNSVPETGVDFLSSTLMLGIILPLGGIFFTILLGYLVVHRRK
# Legend:
# Assay in all cases: glycan array binding signal (z-score within array); higher = stronger binding
# Conditions in all cases: glycan notation: IUPAC condensed, linker removed
# [1] = molecular target: Neu5Ac(a2-6)GalNAc(b1-4)GlcNAc6S
# In short: (§1)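 Glycan array binding is given as a within-array Z-score, which can be read as non-binding when negative. The arrays, 3228 of them, came from the Consortium for Functional Glycomics database and were retained only where the protein sequence was available. Z-scores were averaged across arrays of the same protein sequence at different concentrations or buffers and across linkers.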
# [2] = molecular target: Neu5Ac(a2-6)GlcNAc(b1-4)GlcNAc
# In short: as §1
# [3] = molecular target: Neu5Ac(a2-6)GlcNAc(b1-4)GlcNAc(b1-4)GlcNAc
# In short: as §1
# Neu5Ac(a2-8)Neu5Ac = molecular target: Neu5Ac(a2-8)Neu5Ac
# In short: as §1
# [4] = molecular target: Neu5Ac(a2-8)Neu5Ac(a2-3)Gal(b1-3)GalNAc(b1-4)[Neu5Ac(a2-8)Neu5Ac(a2-3)]Gal(b1-4)Glc
# In short: as §1
# [5] = molecular target: Neu5Ac(a2-8)Neu5Ac(a2-3)Gal(b1-4)Glc
# In short: as §1
# [6] = molecular target: Neu5Ac(a2-8)Neu5Ac(a2-3)[Gal(b1-3)GalNAc(b1-4)]Gal(b1-4)Glc
# In short: as §1
# [7] = molecular target: Neu5Ac(a2-8)Neu5Ac(a2-3)[GalNAc(b1-4)]Gal(b1-4)Glc
# In short: as §1
# [8] = molecular target: Neu5Ac(a2-8)Neu5Ac(a2-8)Neu5Ac
# In short: as §1
# [9] = molecular target: Neu5Ac(a2-8)Neu5Ac(a2-8)Neu5Ac(a2-3)Gal(b1-4)Glc
# In short: as §1
# [10] = molecular target: Neu5Ac(a2-8)Neu5Ac(a2-8)Neu5Ac(a2-3)[GalNAc(b1-4)]Gal(b1-4)Glc
# In short: as §1
# [11] = molecular target: Neu5Ac(a2-8)Neu5Ac(a2-8)Neu5Ac(a2-8)Neu5Ac(a2-3)[GalNAc(b1-4)]Gal(b1-4)Glc
# In short: as §1
# [12] = molecular target: Neu5Ac(b2-6)Gal(b1-4)GlcNAc
# In short: as §1
# Neu5Ac(b2-6)GalNAc = molecular target: Neu5Ac(b2-6)GalNAc
# In short: as §1
# [13] = molecular target: Neu5Ac9Ac(a2-3)Gal(b1-3)GlcNAc
# In short: as §1
# [14] = molecular target: Neu5Ac9Ac(a2-3)Gal(b1-4)GlcNAc
# In short: as §1
# [15] = molecular target: Neu5Ac9Ac(a2-6)Gal(b1-4)GlcNAc
# In short: as §1
# [16] = molecular target: Neu5Gc(a2-3)Gal(b1-3)GlcNAc
# In short: as §1
# [17] = molecular target: Neu5Gc(a2-3)Gal(b1-3)[Fuc(a1-4)]GlcNAc
# In short: as §1
# Neu5Gc(a2-3)Gal(b1-4)Glc = molecular target: Neu5Gc(a2-3)Gal(b1-4)Glc
# In short: as §1
# [18] = molecular target: Neu5Gc(a2-3)Gal(b1-4)GlcNAc
# In short: as §1
# [19] = molecular target: Neu5Gc(a2-3)Gal(b1-4)[Fuc(a1-3)]GlcNAc
# In short: as §1
# [20] = molecular target: Neu5Gc(a2-6)Gal(b1-4)GlcNAc
# In short: as §1
# Neu5Gc(a2-6)GalNAc = molecular target: Neu5Gc(a2-6)GalNAc
# In short: as §1
# [21] = molecular target: Neu5Gc(b2-6)Gal(b1-4)GlcNAc
# In short: as §1
binder,measurement,setting,value
B1,glycan array binding signal (z-score),[1],-0.491
same,glycan array binding signal (z-score),[2],-0.617
same,glycan array binding signal (z-score),[3],-0.456
same,glycan array binding signal (z-score),Neu5Ac(a2-8)Neu5Ac,-0.338
same,glycan array binding signal (z-score),[4],-0.308
same,glycan array binding signal (z-score),[5],-0.559
same,glycan array binding signal (z-score),[6],-0.463
same,glycan array binding signal (z-score),[7],-0.367
same,glycan array binding signal (z-score),[8],-0.456
same,glycan array binding signal (z-score),[9],-0.523
same,glycan array binding signal (z-score),[10],-0.451
same,glycan array binding signal (z-score),[11],0.179
same,glycan array binding signal (z-score),[12],-0.514
same,glycan array binding signal (z-score),Neu5Ac(b2-6)GalNAc,-0.451
same,glycan array binding signal (z-score),[13],-0.641
same,glycan array binding signal (z-score),[14],-0.627
same,glycan array binding signal (z-score),[15],-0.288
same,glycan array binding signal (z-score),[16],-0.493
same,glycan array binding signal (z-score),[17],-0.389
same,glycan array binding signal (z-score),Neu5Gc(a2-3)Gal(b1-4)Glc,-0.108
same,glycan array binding signal (z-score),[18],-0.701
same,glycan array binding signal (z-score),[19],-0.209
same,glycan array binding signal (z-score),[20],-0.444
same,glycan array binding signal (z-score),Neu5Gc(a2-6)GalNAc,-0.577
same,glycan array binding signal (z-score),[21],-0.411
